Read counts are not given, so values of variants with three or more changes are uncertain.
B1: CPEB3 Ribozyme (parent)
chain: UAACAGGGGGCCACAGCAGAAGCGUUCACGUCGCAGCCCCUGUCAGAUUCUGGUGAAUCUGCGAAUUCUGCUGUAUAUCUC

Variants of: B1
Assay: self-cleavage, relative activity (ratio to wild type); higher = more cleavage; in vitro, sequencing
In short: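 After error-prone PCR and barcoding, CPEB3 ribozyme mutant libraries were transcribed with T7 RNA polymerase at 37°C for 5 hours, then given 15 min with DNase I before an EDTA stop, and they cleaved during both steps. Reverse transcription with template switching preceded Illumina sequencing. Relative activity divides a variant's cleaved/total read fraction by the unmutated ribozyme's. At least 5 reads were required per variant, and three batches were averaged.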

Variant | self-cleavage
UAACAGGGGGCCACAGCAGUGGCGUUCGCGUCGCAGCCCCCGUCAGAUUCUGGUGAAUCUGAGGAUUCUGCUGUAUAUCUC | 0.05
UAACAGGGGGCCACAGCAGUGGCGUUCACGUCGCAGCCCCUGUCAGAUUCUGGUGAAUCUGCGUAUUCUGCUGUAUAUCUC | 0.12
UAACAGGGGGCCACAGCAGUGGCGUUCACGUCGCAGCCCCUGUCAGAUUCUGGUGAAUCUGCGAAUUCUGCUGUUUACCUC | 0.09
UAACAGGGGGCCACAGCAGUGGCAUUCACGUCGCUGCCACCGUCAGAUUCUGGUGAAUCUGCGAAUUCUGCUGUGUAUCUC | 0.27
UAACAGGGGGCCACAGCAGUGGCGCUCACGUCGCAGCCCCUGUCAGAUUCUGGUGAAUCUGCGAAUUCUGCUGUAUAUCUC | 0.36
UAACAGGGGGCCACAGCAGUGGCGUACACGUCGCAGCCCCUGUCAGAUUCAGGUGAAUCUGCGAAUUCUGCUGUAUAACUC | 0.08
UAACAGGGGGCCACAGCAGUGGCGUUCACGCCGCAGCCCCUGUCAGACUCUGGUGAUUCUGCGAAUUCUGCUGUACACCUC | 0.07
UAACAGGGGGCCACAGCAGUGGCGUUCACGCCGCAGCCCCUGUCAGAUUCUGGUGAACCUGCGUAUUCUGCCGUAUAUCAC | 0.03
UAACAGGGGGCCACAGCAGUGGCGUUCACGUCGCAGCCCCCGUCAGAUUCUGGUAAAUCUGCGAAUUCUGCUGUAUAUCAC | 0.09
UAACAGGGGGCCACAGCAGUGGCGUUCACGUCGCAGCCCCUGUCAGAUUCGGGUAAAUCUGCGAAUUCUGCUGUAUAUCUC | 0.19
UAACAGGGGGCCACAGCAGUUGCGUUCACGUCGCAGCCCCUGUCAGGUUCUGGUGGAUCUGCGAACUCUGCUGUAUAUCUC | 0.18
UAACAGGGGGCCACAGCAGUUGCGUUCACGUCGCAGCCCCUGUCAGAUUCUGGUGAAUCUGCGAGUUCUGCUGUAUAUCUC | 0.21
UAACAGGGGGCCACAGCAGUUGCGUCCACGUCGAGGCCCUUGUCAGAUUCUGGUGAUUCUGCGAAUUCUGCUGUAUAUCUC | 0.04
UAACAGGGGGCCACAGCAGUUGCGUUCACGCCGCAGCCCCUGUCAGAAUCUGGUGGAUCUGCGAAUUCUGCUGCAUAUCUC | 0.06
UAACAGGGGGCCACAGCAGUAGCGUUCCCGUCGCAGCCCCUGUCAUAUUCUGGAGAAUCUGCGAAUUCUGCUGUAUAUCUC | 0.17
UAACAGGGGGCCACAGCAGUAGCGUUCCCGUCGCAGCCCCUGUCAGAUUCUGCUGAAUCUGCGAAUCCUGCUGUAUAUCUU | 0
UAACAGGGGGCCACAGCAGUAGCGUUCCCGUCGCAGCCCCUGUCAGAUUCUGGUGAAUCUGCGAAUACUGCUGUAAAUCUC | 0.54
UAACAGGGGGCCACAGCAGUAGCGUUCGCGUCGCAGCCCCUGUCUGAUUCUGGUGAAUCUGCGUAUUCUGCUGUAUACCUC | 0.1
UAACAGGGGGCCACAGCAGUAGCGUUCGCGUCGCAGCCCCUGUCAGAUUCUGGUGGAUCUGCGAAUUCUGCUGUAUAUCUC | 0.17
UAACAGGGGGCCACAGCAGUAGCGUUCGCGUCGCAGCCCAUGUCAGAUUCUGGUGAAACUGCGAAUUCUGCUGUAUAUCUC | 0.18
UAACAGGGGGCCACAGCAGUAGCGUUCGCAUCGCAGCCCAUGACAGAUUCUGGUGAAACUGCGAAUUCUGCUGUAUAUCUC | 0.04
UAACAGGGGGCCACAGCAGUAGCGUUCGCGGCGCAGCCCCUGUCAGUUUCUGGUGAACCUGCGAAUUCUGCUGUAUACCUC | 0.03
UAACAGGGGGCCACAGCAGUAGCGUUCGCGUCGCAGCCCCUGUCAGACUCUGGUGAAUCCGCGAAUUCUGCUGUAUAUCUC | 0.25

Variant | self-cleavage
UAACAGGGGGCCACAGCAGUAGCGUUCGCGUCGCAGCCCCUGUCAGAUUCUGGCGAAUCUGCGAAUUCUGCUGUUUAUGUC | 0.19
UAACAGGGGGCCACAGCAGUAGCGUUCGCGUCGCAGCCCCUGUCAGAUUCUGGUGAAUCUGCGAAUCCUGCUGUAUGUCUC | 0.12
UAACAGGGGGCCACAGCAGUAGCGUUCGCGUCGCAGCCCCUGUCAGAUUCUGGUGAAUCUGCGAAUUCUGCUGUAUAUCCC | 0.19
UAACAGGGGGCCACAGCAGUAGCGUUCUCGUCGCAGCCCCUGUCUGACUCUGGUGAAUCUGCGAAUUCUGCUGUAUAUCGC | 0.04
UAACAGGGGGCCACAGCAGUAGCGUUCUCGUCGCAACCCCUGUCAGAUUCUGGUGAAUCUGCGAAUUCUGCAGAAUAUCUC | 0.04
UAACAGGGGGCCACAGCAGUAGCGUUCUCGUCGCAGCCCCCGUCGGAUUCUGGUGGAUCUGCGAGUUCUGCUGUAUAUCUC | 0.28
UAACAGGGGGCCACAGCAGUAGCGUUCACGUCGCCGCCCCAGUCAGAUUCUGGCGAAUCUGCGAAUUCUGCUGUAUACCUC | 0.08
UAACAGGGGGCCACAGCAGUAGCGUUCACGUCGCGGCCCCUGUCAGAUUCUGGUGUAUCUGCGAAUUCUGCAGUAUAUCUC | 0.11
UAACAGGGGGCCACAGCAGUAGCGUUCACGUCGCGGCCCCUGUCAGAUUCUGGUGAUUCUGCGAAUUCUGCUGUAUAUCUC | 0.34
UAACAGGGGGCCACAGCAGUAGCGUUCACGUCGCGGCCCCUGUCAGAUUCUGGUGAAUCUGCGGAUUCUGCAGUAUAUCUC | 0.47
UAACAGGGGGCCACAGCAGUAGCGUUCACGUCGCGGCCCCAGUCAGAUUCUGGUGAAUCUGCGAAUUCUGCUGUAUAUCUC | 0.15
UAACAGGGGGCCACAGCAGUAGCGUUCACGUCGCGGCCCCUGUCAGAUACCGGUGAAUCUGCGAAUUCUGCUGUAUAUCUC | 0.3
UAACAGGGGGCCACAGCAGUAGCGUUCACGUCGCGGCCCCUGUCAGAUUCAGGUGAAUCUGCGAAUUCUGCUGUAUAUCUC | 1.19
UAACAGGGGGCCACAGCAGUAGCGUUCACGUCGCGGCCCCUGUCAGAUUCUGGUGAACCUGCGAAUUCUGCUGUAUAUCUC | 0.31
UAACAGGGGGCCACAGCAGUAGCGUUCACGUCGCGGCCCCUGUCAGAUUCUGGUGAAUCCGCGAAUUCUGCUGUAUAUCUC | 0.22
UAACAGGGGGCCACAGCAGUAGCGUUCACGUCGCGGCCCCUGUCAGAUUCUGGUGAAUCUGCGAAUUCUGCAGUAUGUCUC | 0.22
UAACAGGGGGCCACAGCAGUAGCGUUCACGUCGCGGCCCCUGUCAGAUUCUGGUGAAUCUGCGAAUUCUGCAGUAUACCAC | 0.64
UAACAGGGGGCCACAGCAGUAGCGUUCACGUCGCUGCCCUUGUCGGAUUCUGGUGAAUCCGCGAAUUCUGCUGUAUCUCUC | 0.13
UAACAGGGGGCCACAGCAGUAGCGUUCACGUCGCUGCCCCAGUCAGAUUCUGGUGAAUCUGCGAAUUCUGCUGUAUAUCUC | 0.22
UAACAGGGGGCCACAGCAGUAGCGUUCACGUCGCUGCCCCUGCCAGAUCCUGGUGAAUCUGCGAAUUCUGCGGUUUAUCUC | 0.13
UAACAGGGGGCCACAGCAGUAGCGUUCACGUCGCUGCCCCUGUCAGAUUCUGGUGAAUCUGCGAAUACUGCUGUAUAUCCC | 0.58
UAACAGGGGGCCACAGCAGUAGCGUUCACGUCGCUGCCCCUGUCAGAUUCUGGUGAAUCUGCGAAUUCUGCUGUAUACCUC | 0.14
UAACAGGGGGCCACAGCAGUAGCGUUCACGUCGCAGCCCCUGUCGGGUUCUGGUGAAUCUGCGAAUUCUGCUGUAUAUCUC | 0.09

Variant | self-cleavage
UAACAGGGGGCCACAGCAGUAGCGUUCACGUCGCAGCCCCUGUCGGGUUCGGGUGAAUCUGCGAAUUCUGCUGUAUGUCUU | 0.05
UAACAGGGGGCCACAGCAGUAGCGUUCACGUCGCAGCCCCUGUCGGAUUCUGGUGGAUCUGCGGAUUCUGCUGUAUAUCUC | 0.23
UAACAGGGGGCCACAGCAGUAGCGUUCACGUCGCAGCCCCUGUCGGAUUCUGGUGUAUCUGCGGAUUCUGCUGUAUAUCUC | 0.05
UAACAGGGGGCCACAGCAGUAGCGUUCACGUCGCAGCCCCUGUCGGAUUCUGGUGAUUCUGCGAAUUCUGCUGUAUAUCUC | 0.09
UAACAGGGGGCCACAGCAGUAGCGUUCACGUCGCAGCCCCUGUCGGAUUCUGAUGAAUCUGCGAAUUCUGCUGUGUAUCUC | 0.13
UAACAGGGGGCCACAGCAGUAGCGUUCACGUCGCAGCCCCUGUCGGAUUCUGGUGAAUCUGCGAAAUCUGCUGUAUAUCUC | 0.22
UAACAGGGGGCCACAGCAGUAGCGUUCACGUCGCAGCCCCUGUCUGAUUCUGGUGAAUCUGCGAAUUCUGCUGUGUAUCUC | 0.2
UAACAGGGGGCCACAGCAGUAGCGUUCACGUCGCAGCCCCUGUCUGAUCCUGGUGAAUCUGUGAAUUCUGCUGUAUAUCUC | 0.14
UAACAGGGGGCCACAGCAGUAGCGUUCACGUCGCAGCCCCUGUCUGAUUCUGGUGAAUCUGCGAAUUCUGCUGUAUAUCCC | 0.15
UAACAGGGGGCCACAGCAGUAGCGUUCACGUCGCAGCCCCUGUCAGGUCCUGGUGUAUCUGCGAAUUCUCCUGUAUAUCUC | 0.22
UAACAGGGGGCCACAGCAGUAGCGUUCACGUCGCAGCCCCUGUCAGGUUCCGGUGAGUCCGCGAAUUCUGCCGUAUAUCUC | 0.22
UAACAGGGGGCCACAGCAGUAGCGUUCACGUCGCAGCCCCUGUCAGGUUCUGGUGAAUCUGCGAAUUCAGCUGUAUAUCUC | 0.12
UAACAGGGGGCCACAGCAGUAGCGUUCACGUCGCAGCCCCUGUCAGGUUCUGGUGAAUCUGCGAAUUCUGCGGUAUAUCUC | 0.12
UAACAGGGGGCCACAGCAGUAGCGUUCACGUCGCAGCCCCUGUCAGUUUCUGGUGGAUCUGCUAAUCCUGCUGCAUAUCUC | 0.07
UAACAGGGGGCCACAGCAGUAGCGUUCACGUCGCAGCCCCUGUCAGUUUCUGGUGAGUCUGCGAAUUCAGCUGUAUAUCUC | 0.16
UAACAGGGGGCCACAGCAGUAGCGUUCACGUCGCAGCCCCUGUCAGAUUCUGGUGGAUCUGCGUAUUCUGCCGUAUAUCUC | 0.19
UAACAGGGGGCCACAGCAGUAGCGUUCACGUCGCAGCCCCUGUCAGAUUCUGGUGGAUCUGCGAGUUCUGCUGUAUAUCUC | 0.11
UAACAGGGGGCCACAGCAGUAGCGUUCACGUCGCAGCCCCUGUCAGAUUCUGGUGGAUCUGAGAAUUCCGCUGUAUAUCUC | 0.13
UAACAGGGGGCCACAGCAGUAGCGUUCACGUCGCAGCCCCUGUCAGAUUCUGGUGGAUCUGCGAAUUCUGCUGAAUAUCCC | 0.27
UAACAGGGGGCCACAGCAGUAGCGUUCACGUCGCAGCCCCUGUCAGAUUCUGGUGUUUCUGCGAAUUCUGCUGUAUAUCUC | 0.44
UAACAGGGGGCCACAGCAGUAGCGUUCACGUCGCAGCCCCUGUCAGAUUCUGGUGUAUCUGCGAACUCUGCUGUAUAUCUC | 0.14
UAACAGGGGGCCACAGCAGUAGCGUUCACGUCGCAGCCCCUGUCAGAUUCUGGUGUAUCUGCGAAUACUGCUGUAUAACUC | 1.04
